Laboratory results reported in the supplement of paper PMC8728848.
This is one part of the list.

Tests used:
Assay in all cases: glycan array binding signal (z-score within array); higher = stronger binding
Settings in all cases: glycan notation: IUPAC condensed, linker removed
Gal6S(b1-4)Glc6S = target: Gal6S(b1-4)Glc6S
Method in brief: (§1)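 The binding signal is a Z-score computed within each array. Data were drawn from 3228 arrays in the Consortium for Functional Glycomics database, restricted to those with a known protein sequence. Scores were averaged over arrays of the same protein sequence at different concentrations or buffers, and over linkers, and negative values can be taken as non-binding.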

Gal6S(b1-4)GlcNAc = target: Gal6S(b1-4)GlcNAc
Method in brief: as §1

Gal6S(b1-4)GlcNAc6S = target: Gal6S(b1-4)GlcNAc6S
Method in brief: as §1

GalNAc(a1-3)Gal = target: GalNAc(a1-3)Gal
Method in brief: as §1

GalNAc(a1-3)GalNAc = target: GalNAc(a1-3)GalNAc
Method in brief: as §1

[1] = target: GalNAc(a1-3)GalNAc(b1-3)Gal(a1-4)Gal(b1-4)Glc
Method in brief: as §1

[2] = target: GalNAc(a1-3)GalNAc(b1-3)Gal(a1-4)Gal(b1-4)GlcNAc
Method in brief: as §1

GalNAc(b1-3)Gal = target: GalNAc(b1-3)Gal
Method in brief: as §1

[3] = target: GalNAc(b1-3)Gal(a1-4)Gal(b1-4)GlcNAc
Method in brief: as §1

[4] = target: GalNAc(b1-3)Gal(a1-4)Gal(b1-4)GlcNAc(b1-3)Gal(b1-4)Glc
Method in brief: as §1

[5] = target: GalNAc(b1-3)Gal(a1-6)Gal(b1-4)Glc
Method in brief: as §1

GalNAc(b1-3)GalNAc = target: GalNAc(b1-3)GalNAc
Method in brief: as §1

GalNAc(b1-3)GlcNAc = target: GalNAc(b1-3)GlcNAc
Method in brief: as §1

GalNAc(b1-4)Gal(b1-4)Glc = target: GalNAc(b1-4)Gal(b1-4)Glc
Method in brief: as §1

GalNAc(b1-4)GlcNAc = target: GalNAc(b1-4)GlcNAc
Method in brief: as §1

[6] = target: GalNAc(b1-4)GlcNAc(b1-2)Man
Method in brief: as §1

[7] = target: GalNAc(b1-4)GlcNAc(b1-2)Man(a1-3)[GalNAc(b1-4)GlcNAc(b1-2)Man(a1-6)]Man(b1-4)GlcNAc(b1-4)GlcNAc
Method in brief: as §1

[8] = target: GalNAc(b1-4)GlcNAc(b1-3)GalNAc(b1-4)GlcNAc
Method in brief: as §1

GalNAc(b1-4)GlcNAc6S = target: GalNAc(b1-4)GlcNAc6S
Method in brief: as §1

GalNAc(b1-6)GalNAc = target: GalNAc(b1-6)GalNAc
Method in brief: as §1

GalNAc3S(b1-4)GlcNAc = target: GalNAc3S(b1-4)GlcNAc
Method in brief: as §1

GalNAc3S(b1-4)GlcNAc3S = target: GalNAc3S(b1-4)GlcNAc3S
Method in brief: as §1

[9] = target: GalNAc3S(b1-4)[Fuc(a1-3)]GlcNAc
Method in brief: as §1

GalNAc4S6S(b1-4)GlcNAc = target: GalNAc4S6S(b1-4)GlcNAc
Method in brief: as §1

GalNAc6S(b1-4)GlcNAc = target: GalNAc6S(b1-4)GlcNAc
Method in brief: as §1

Glc(a1-4)Glc = target: Glc(a1-4)Glc
Method in brief: as §1

[10] = target: Glc(a1-4)Glc(a1-4)Glc(a1-4)Glc
Method in brief: as §1

Glc(a1-6)Glc(a1-6)Glc = target: Glc(a1-6)Glc(a1-6)Glc
Method in brief: as §1

[11] = target: Glc(a1-6)Glc(a1-6)Glc(a1-6)Glc
Method in brief: as §1

Glc(b1-4)Glc = target: Glc(b1-4)Glc
Method in brief: as §1

Glc(b1-6)Glc = target: Glc(b1-6)Glc
Method in brief: as §1

GlcA(b1-3)Gal = target: GlcA(b1-3)Gal
Method in brief: as §1

GlcA(b1-3)GlcNAc = target: GlcA(b1-3)GlcNAc
Method in brief: as §1

GlcA(b1-6)Gal = target: GlcA(b1-6)Gal
Method in brief: as §1

[12] = target: GlcA3S(b1-3)Gal(b1-4)GlcNAc(b1-2)Man
Method in brief: as §1

[13] = target: GlcA3S(b1-3)Gal(b1-4)GlcNAc(b1-3)Gal(b1-4)Glc
Method in brief: as §1

[14] = target: GlcNAc(a1-3)Gal(b1-4)GlcNAc
Method in brief: as §1

B1: Cohesin-mDC-ASGPR (Macaca mulatta) (protein)
chain: LDITSHHHHHHDDLDAVRIKVDTVNAKPGDTVRIPVRFSGIPSKGIANCDFVYSYDPNVLEIIEIEPGDIIVDPNPDKSFDTAVYPDRKIIVFLFAEDSGTGAYAITKDGVFATIVAKVKEGAPNGLSVIKFVEVGGFANNDLVEQKTQFFDGGVNVGDTTEPATPTTPVTTPTTTDDLDAASSQNSKFQRDLVTLRTDFSNFTSNTVAEIQALTSQGSSVEEMIASLKAEVEVIKQEQQAVHSEMLLRVQRLMQDLNKLTCQVATLKNNASTERTCCPVNWVEHQDSCYWFSRSGMPWAEAEKHCQLENAHLVVINSREEQNFVQEHLSFAYTWMGLSDREGAWKWVDGTDYETGFQNWKPGQPDDWQGHGLGGGEDCAHFHPDGRWNDDVCQRPYYWVCEAGLTQASQESH
**Q.** How did the “glycan array binding signal (z-score)” value (Gal6S(b1-4)Glc6S) turn out when B1 was run?
**A.** Its value is -0.316.

**Q.** What about the “glycan array binding signal (z-score)” value (Gal6S(b1-4)GlcNAc) of the same binder?
**A.** The value was -0.409.

**Q.** And the “glycan array binding signal (z-score)” value (Gal6S(b1-4)GlcNAc6S)?
**A.** Its value is -0.397.

**Q.** What about the “glycan array binding signal (z-score)” value (GalNAc(a1-3)Gal) of the same binder?
**A.** The value was 2.81.

**Q.** What about the “glycan array binding signal (z-score)” value (GalNAc(a1-3)GalNAc) of the same binder?
**A.** Its value is 2.28.

**Q.** And the “glycan array binding signal (z-score)” value [1]?
**A.** Its value is 2.97.

**Q.** What about the “glycan array binding signal (z-score)” value [2] of the same binder?
**A.** Its value is 2.58.

**Q.** What about the “glycan array binding signal (z-score)” value (GalNAc(b1-3)Gal) of the same binder?
**A.** Its value is 3.51.

**Q.** And the “glycan array binding signal (z-score)” value [3]?
**A.** The value was 2.6.

**Q.** What about the “glycan array binding signal (z-score)” value [4] of the same binder?
**A.** Its value is 2.99.

**Q.** What about the “glycan array binding signal (z-score)” value [5] of the same binder?
**A.** The value was 2.76.

**Q.** What about the “glycan array binding signal (z-score)” value (GalNAc(b1-3)GalNAc) of the same binder?
**A.** The value was -0.357.

**Q.** What about the “glycan array binding signal (z-score)” value (GalNAc(b1-3)GlcNAc) of the same binder?
**A.** The value was 2.71.

**Q.** And the “glycan array binding signal (z-score)” value (GalNAc(b1-4)Gal(b1-4)Glc)?
**A.** Its value is -0.272.

**Q.** And the “glycan array binding signal (z-score)” value (GalNAc(b1-4)GlcNAc)?
**A.** The value was 3.5.

**Q.** And the “glycan array binding signal (z-score)” value [6]?
**A.** Its value is 2.58.

**Q.** And the “glycan array binding signal (z-score)” value [7]?
**A.** Its value is 2.93.

**Q.** And the “glycan array binding signal (z-score)” value [8]?
**A.** Its value is 3.21.

**Q.** What about the “glycan array binding signal (z-score)” value (GalNAc(b1-4)GlcNAc6S) of the same binder?
**A.** Its value is 0.884.

**Q.** What about the “glycan array binding signal (z-score)” value (GalNAc(b1-6)GalNAc) of the same binder?
**A.** The value was -0.42.

**Q.** And the “glycan array binding signal (z-score)” value (GalNAc3S(b1-4)GlcNAc)?
**A.** The value was -0.387.

**Q.** What about the “glycan array binding signal (z-score)” value (GalNAc3S(b1-4)GlcNAc3S) of the same binder?
**A.** The value was -0.428.

**Q.** And the “glycan array binding signal (z-score)” value [9]?
**A.** The value was -0.416.

**Q.** And the “glycan array binding signal (z-score)” value (GalNAc4S6S(b1-4)GlcNAc)?
**A.** The value was -0.416.

**Q.** What about the “glycan array binding signal (z-score)” value (GalNAc6S(b1-4)GlcNAc) of the same binder?
**A.** Its value is 3.82.

**Q.** What about the “glycan array binding signal (z-score)” value (Glc(a1-4)Glc) of the same binder?
**A.** The value was -0.406.

**Q.** And the “glycan array binding signal (z-score)” value [10]?
**A.** Its value is -0.409.

**Q.** What about the “glycan array binding signal (z-score)” value (Glc(a1-6)Glc(a1-6)Glc) of the same binder?
**A.** Its value is -0.394.

**Q.** What about the “glycan array binding signal (z-score)” value [11] of the same binder?
**A.** Its value is -0.405.

**Q.** And the “glycan array binding signal (z-score)” value (Glc(b1-4)Glc)?
**A.** The value was -0.397.

**Q.** And the “glycan array binding signal (z-score)” value (Glc(b1-6)Glc)?
**A.** The value was -0.376.

**Q.** And the “glycan array binding signal (z-score)” value (GlcA(b1-3)Gal)?
**A.** Its value is -0.43.

**Q.** What about the “glycan array binding signal (z-score)” value (GlcA(b1-3)GlcNAc) of the same binder?
**A.** The value was -0.402.

**Q.** And the “glycan array binding signal (z-score)” value (GlcA(b1-6)Gal)?
**A.** The value was -0.419.

**Q.** What about the “glycan array binding signal (z-score)” value [12] of the same binder?
**A.** Its value is -0.429.

**Q.** And the “glycan array binding signal (z-score)” value [13]?
**A.** Its value is -0.405.

**Q.** And the “glycan array binding signal (z-score)” value [14]?
**A.** Its value is -0.4.
